The other results are listed elsewhere or left out.

In PMC7819943, “Rice protein-binding microarrays: a tool to detect cis-acting elements near promoter regions in rice” one finds binding signal data, which are given here for 42 sequences.

This assay has as its target T1, OsWOX13 (Oryza sativa, UniProt Q5QMM3 1-267).
T1 sequence: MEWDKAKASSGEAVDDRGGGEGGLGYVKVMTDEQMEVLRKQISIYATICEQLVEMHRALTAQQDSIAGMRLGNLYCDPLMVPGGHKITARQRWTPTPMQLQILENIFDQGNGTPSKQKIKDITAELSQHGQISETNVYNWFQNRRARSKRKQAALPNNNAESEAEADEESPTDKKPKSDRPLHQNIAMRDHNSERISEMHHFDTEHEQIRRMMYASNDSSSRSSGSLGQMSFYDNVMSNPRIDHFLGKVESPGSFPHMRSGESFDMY
The assay can be described thus: protein-binding microarray (RPBM); PBS, 2% BSA, 51.3 ng/ul salmon testes DNA, 50 uM zinc acetate, 200 nM TF, 25 C, 1 h; high values mean tight binding. Particulars: protein: recombinant; tags: N-terminal polyhistidine and DsRed monomer fusion (pET32a); label: CyDye5-dUTP incorporated in the synthesized complementary strand; 3' TTTTT single-stranded linker to array surface; dsDNA, one strand shown. The essentials:
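The binding signal for each feature is its fluorescence intensity in arbitrary units. An Axon 4000B scanner was used to read a custom Agilent array that had been made double-stranded with Cy5-dUTP primer extension, blocked with 2% BSA, incubated at 25 °C for 1 h with 200 nM protein in PBS, 2% BSA, salmon testes DNA and 50 µM zinc acetate, and washed. The protein was an N-terminal polyhistidine–DsRed transcription factor fusion from E. coli BL21-CodonPlus, purified on Ni–NTA.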
Regarding “CTTAATTAATATAATGTCACATAAGCTAAAATTCCTACATCGGAGTCACCTAGTGCAG”, the binding signal was 32900 fluorescence intensity (a.u.).

Take “CCACTGCTAGACTGCTAATTAACCAGTCCGCTCCAAGCGTCGGAGTCACCTAGTGCAG”: the binding signal was 17400 fluorescence intensity (a.u.).

As to “TAGATAGATAGATAGATAGATAGATAGATAGATAGATACCCGGAGTCACCTAGTGCAG”, the binding signal is 33700 fluorescence intensity (a.u.).

On to “GTCGCCTCCTGATTGGTTGTCCCCTCTTCCTTTCACGCGACGGAGTCACCTAGTGCAG”, for which the binding signal is 25800 fluorescence intensity (a.u.).

As to “CTTATAGATGTTTGGATTGATGTCAAAATTTAACAAAGTTCGGAGTCACCTAGTGCAG”, the binding signal was 5120 fluorescence intensity (a.u.).

For the sequence “CCGGTGATAGCCTTATCTTGATTTTGTGTTGGTGCTATCGCGGAGTCACCTAGTGCAG”, the binding signal is 6680 fluorescence intensity (a.u.).

Take “TATGATTGTGAGCACATGTATTCTAGTTAGAGGTGAATTTCGGAGTCACCTAGTGCAG”: the binding signal is 14000 fluorescence intensity (a.u.).

Consider “GGGGATTATTTATACATTTGTCGATAAATTTCCTGCTCCCCGGAGTCACCTAGTGCAG”, for which the binding signal is 8640 fluorescence intensity (a.u.).

With “ACCACGTAAATCTAAATCATGCTTTACCTATAAATGCGAGCGGAGTCACCTAGTGCAG”, the binding signal was 3410 fluorescence intensity (a.u.).

For the sequence “ATCAGTCAATACTAACAATCAACCGTGACTAGTGACTCCACGGAGTCACCTAGTGCAG”, the binding signal is 7570 fluorescence intensity (a.u.).

For the sequence “GTGTGATTATAACTACACATCAGCTTGCTGGCCAGCCTCTCGGAGTCACCTAGTGCAG”, the binding signal was 18300 fluorescence intensity (a.u.).

With “TCAAGCTAGTGATCAATTTATTTTCATGAATAATAATGGCCGGAGTCACCTAGTGCAG”, the binding signal was 5030 fluorescence intensity (a.u.).

“ACAAATTTGAACTTAGAGTGATTTTACTTTAACCAAAGTCCGGAGTCACCTAGTGCAG”: the binding signal was 16300 fluorescence intensity (a.u.).

Consider “CGCTTAATGACTTCACTTTGTCCTCGGATGATTTGCGTCCCGGAGTCACCTAGTGCAG”, for which the binding signal was 11700 fluorescence intensity (a.u.).

In the case of “GTCCTTTCAGCAGAGATGATTGTCTGAAATCAAAATATTTCGGAGTCACCTAGTGCAG”, the binding signal was 4010 fluorescence intensity (a.u.).

On to “TACTTTTGATTATCTAGAACTAATCACTCATACACGCGTCCGGAGTCACCTAGTGCAG”, for which the binding signal is 18600 fluorescence intensity (a.u.).

As to “TCCTTAATTTATTCGAATACCATTTGAATAAATATTTGATCGGAGTCACCTAGTGCAG”, the binding signal is 26300 fluorescence intensity (a.u.).

For “CTAAATTACTTATTTGTAGATGAAAGAGGTGGTACTTTATCGGAGTCACCTAGTGCAG”, the binding signal was 14500 fluorescence intensity (a.u.).

For “AGCCCAGGACAAATTAATTATGTGGTATGCCTGCATGATCCGGAGTCACCTAGTGCAG”, the binding signal is 8080 fluorescence intensity (a.u.).

On to “ACACTAAATGAATTCTAAAATACGACAAAGATCAAACAAGCGGAGTCACCTAGTGCAG”, for which the binding signal is 3600 fluorescence intensity (a.u.).

For “TGTATCATTGATTTAGAGTATTTTATTTTAATTTATATGTCGGAGTCACCTAGTGCAG”, the binding signal is 8960 fluorescence intensity (a.u.).

Take “CTTGGATAGATTCTTAATTAGCATACAGAAGCAGCAGTAGCGGAGTCACCTAGTGCAG”: the binding signal is 14000 fluorescence intensity (a.u.).

“CAAATTTACCCTAGATTAGTTGCTTCATTGTATTGTCTATCGGAGTCACCTAGTGCAG”: the binding signal is 6870 fluorescence intensity (a.u.).

Consider “GTGGCTCTAAATTAAGTTTGTCTAGACTTATCCTGGTGTACGGAGTCACCTAGTGCAG”, for which the binding signal is 4780 fluorescence intensity (a.u.).

Take “GGCTATTAGATTGGTTATAAATGAATTGGAGCCAATAGTGCGGAGTCACCTAGTGCAG”: the binding signal was 39100 fluorescence intensity (a.u.).

On to “CGCTTGATCTGGGGTGGGGTCGCGAGTGGTGGAGGAGGTGCGGAGTCACCTAGTGCAG”, for which the binding signal was 3600 fluorescence intensity (a.u.).

“TATTTAATTAACTATGTACTATTTTATCGTTCAATTTTACCGGAGTCACCTAGTGCAG”: the binding signal was 16500 fluorescence intensity (a.u.).

As to “CCTAATGAATGGAAGTTGGTCTTGGTCTTCTTCAGGGCAACGGAGTCACCTAGTGCAG”, the binding signal was 5070 fluorescence intensity (a.u.).

In the case of “CTGATTTCTGTGACATATGATAAATTGAACGTAGATGGATCGGAGTCACCTAGTGCAG”, the binding signal was 31600 fluorescence intensity (a.u.).

For the sequence “ATAAATTTGAGTAAATTTAACATAAGTTTGATTAGGAAAACGGAGTCACCTAGTGCAG”, the binding signal is 9310 fluorescence intensity (a.u.).

As to “AAAATTTTAATGTGATGGAAAAGTCGGAAGTTCGAAGAAACGGAGTCACCTAGTGCAG”, the binding signal is 10700 fluorescence intensity (a.u.).

Take “ATGAATCAGTTTAAACAGTTAAGGGAGCATCTGTATCTAGCGGAGTCACCTAGTGCAG”: the binding signal was 3260 fluorescence intensity (a.u.).

Regarding “TAAAGTTCTACTAGTAATTGATTCAATCGCCCCGTTAGTGCGGAGTCACCTAGTGCAG”, the binding signal was 7900 fluorescence intensity (a.u.).

In the case of “GTGACATTTACGTTTAACTATTTATTACTCCCTCGGTCACCGGAGTCACCTAGTGCAG”, the binding signal is 3990 fluorescence intensity (a.u.).

“GCTGAATTGTTCAAAATTGCCAGTGCTTGCCATCATAGGACGGAGTCACCTAGTGCAG”: the binding signal was 4000 fluorescence intensity (a.u.).

In the case of “ACGTCTAATTACTGCTTCAGGACTGGCTTATCATCGAAGTCGGAGTCACCTAGTGCAG”, the binding signal is 17000 fluorescence intensity (a.u.).

“CGAATTTATTAAGTCTAATTAATTCGTCATTAGTAAATATCGGAGTCACCTAGTGCAG”: the binding signal was 5070 fluorescence intensity (a.u.).

Consider “CACCTGATTTAAACGAGTGAAACATTTTCGATCTGAAACACGGAGTCACCTAGTGCAG”, for which the binding signal was 13200 fluorescence intensity (a.u.).

In the case of “TATAGATTTAAATCAGTGTATCCCAAAGCTACAAATTTAGCGGAGTCACCTAGTGCAG”, the binding signal was 12700 fluorescence intensity (a.u.).

“ATCCACTAATTAGGCAATTTCCCGCTGTCAAGTATGCTACCGGAGTCACCTAGTGCAG”: the binding signal was 41600 fluorescence intensity (a.u.).

Consider “TATTATTGCTGGCAACATTAATTGGCTTGTCTTTGACAAGCGGAGTCACCTAGTGCAG”, for which the binding signal was 3250 fluorescence intensity (a.u.).

On to “GGCCTCTAGGATGATTGGCAAGGTGGCGGTCTAGCTTGACCGGAGTCACCTAGTGCAG”, for which the binding signal is 14700 fluorescence intensity (a.u.).
